# Measurements reported in the supplement of paper PMC8728848.
# Some of the results follow.
# B1: SEX4 (Arabidopsis thaliana), Q944A8 (protein)
# chain: TQAMGAVLTYRHELGMNYNFIRPDLIVGSCLQTPEDVDKLRKIGVKTIFCLQQDPDLEYFGVDISSIQAYAKKYSDIQHIRCEIRDFDAFDLRMRLPAVVGTLYKAVKRNGGVTYVHCTAGMGRAPAVALTYMFWVQGYKLMEAHKLLMSKRSCFPKLDAIRNATIDILTGLKRKTVTLTLKDKGFSRVEISGLDIGWGQRIPLTLGKGTGFWILKRELPEGQFEYKYIIDGEWTHNEAEPFIGPNKDGHTNNYAKVVDDPTSVDGTTRERLSSEDPELLEEERSKLIQFLETCSEAEV
# What was measured:
# Test in all cases: glycan array binding signal (z-score within array); higher = stronger binding
# Settings in all cases: glycan notation: IUPAC condensed, linker removed
# [1] = target: Neu5Ac(a2-3)Gal(b1-4)[Fuc(a1-3)]GlcNAc(b1-3)Gal(b1-4)GlcNAc
# In short: (§1)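 Arrays were curated from the Consortium for Functional Glycomics database, 3228 in total, and kept only where the protein sequence was available. Binding is expressed as a within-array Z-score. This score was averaged across arrays of the same protein sequence at different concentrations or buffers and across linkers, and negative values can be read as non-binding.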
# [2] = target: Neu5Ac(a2-3)Gal(b1-4)[Fuc(a1-3)]GlcNAc(b1-3)Gal(b1-4)[Fuc(a1-3)]GlcNAc(b1-3)Gal(b1-4)[Fuc(a1-3)]GlcNAc
# In short: as §1
# [3] = target: Neu5Ac(a2-3)Gal(b1-4)[Fuc(a1-3)]GlcNAc(b1-3)GalNAc
# In short: as §1
# [4] = target: Neu5Ac(a2-3)Gal(b1-4)[Fuc(a1-3)]GlcNAc(b1-6)[Gal(b1-3)]GalNAc
# In short: as §1
# [5] = target: Neu5Ac(a2-3)Gal(b1-4)[Fuc(a1-3)]GlcNAc(b1-6)[Neu5Ac(a2-3)Gal(b1-3)]GalNAc
# In short: as §1
# [6] = target: Neu5Ac(a2-3)Gal(b1-4)[Fuc(a1-3)]GlcNAc6S
# In short: as §1
# [7] = target: Neu5Ac(a2-3)Gal6S(b1-4)GlcNAc
# In short: as §1
# [8] = target: Neu5Ac(a2-3)Gal6S(b1-4)[Fuc(a1-3)]GlcNAc
# In short: as §1
# Neu5Ac(a2-3)GalNAc = target: Neu5Ac(a2-3)GalNAc
# In short: as §1
# [9] = target: Neu5Ac(a2-3)GalNAc(b1-4)GlcNAc
# In short: as §1
# [10] = target: Neu5Ac(a2-3)[GalNAc(b1-4)]Gal(b1-4)Glc
# In short: as §1
# [11] = target: Neu5Ac(a2-3)[GalNAc(b1-4)]Gal(b1-4)GlcNAc
# In short: as §1
# [12] = target: Neu5Ac(a2-3)[GalNAc(b1-4)]Gal(b1-4)GlcNAc(b1-3)GalNAc
# In short: as §1
# [13] = target: Neu5Ac(a2-3)[Neu5Ac(a2-6)]GalNAc
# In short: as §1
# Neu5Ac(a2-6)Gal = target: Neu5Ac(a2-6)Gal
# In short: as §1
# [14] = target: Neu5Ac(a2-6)Gal(b1-3)GlcNAc(b1-3)[Gal(b1-4)GlcNAc(b1-6)]Gal(b1-4)Glc
# In short: as §1
# Neu5Ac(a2-6)Gal(b1-4)Glc = target: Neu5Ac(a2-6)Gal(b1-4)Glc
# In short: as §1
# [15] = target: Neu5Ac(a2-6)Gal(b1-4)GlcNAc
# In short: as §1
# [16] = target: Neu5Ac(a2-6)Gal(b1-4)GlcNAc(b1-2)Man(a1-3)Man(b1-4)GlcNAc(b1-4)GlcNAc
# In short: as §1
# [17] = target: Neu5Ac(a2-6)Gal(b1-4)GlcNAc(b1-2)Man(a1-3)[Gal(b1-4)GlcNAc(b1-2)Man(a1-6)]Man(b1-4)GlcNAc(b1-4)GlcNAc
# In short: as §1
# [18] = target: Neu5Ac(a2-6)Gal(b1-4)GlcNAc(b1-2)Man(a1-3)[GlcNAc(b1-2)Man(a1-6)]Man(b1-4)GlcNAc(b1-4)GlcNAc
# In short: as §1
# [19] = target: Neu5Ac(a2-6)Gal(b1-4)GlcNAc(b1-2)Man(a1-3)[GlcNAc(b1-2)Man(b1-4)GlcNAc(b1-2)Man(a1-6)]Man(b1-4)GlcNAc(b1-4)GlcNAc
# In short: as §1
# [20] = target: Neu5Ac(a2-6)Gal(b1-4)GlcNAc(b1-2)Man(a1-3)[Man(a1-6)]Man(b1-4)GlcNAc(b1-4)GlcNAc
# In short: as §1
# [21] = target: Neu5Ac(a2-6)Gal(b1-4)GlcNAc(b1-2)Man(a1-3)[Neu5Ac(a2-6)Gal(b1-4)GlcNAc(b1-2)Man(a1-6)]Man(b1-4)GlcNAc(b1-4)GlcNAc
# In short: as §1
# [22] = target: Neu5Ac(a2-6)Gal(b1-4)GlcNAc(b1-2)Man(a1-6)Man(b1-4)GlcNAc(b1-4)GlcNAc
# In short: as §1
# [23] = target: Neu5Ac(a2-6)Gal(b1-4)GlcNAc(b1-2)Man(a1-6)[Gal(b1-4)GlcNAc(b1-2)Man(a1-3)]Man(b1-4)GlcNAc(b1-4)GlcNAc
# In short: as §1
# [24] = target: Neu5Ac(a2-6)Gal(b1-4)GlcNAc(b1-2)Man(a1-6)[GlcNAc(b1-2)Man(a1-3)]Man(b1-4)GlcNAc(b1-4)GlcNAc
# In short: as §1
# [25] = target: Neu5Ac(a2-6)Gal(b1-4)GlcNAc(b1-2)Man(a1-6)[Man(a1-3)]Man(b1-4)GlcNAc(b1-4)GlcNAc
# In short: as §1
# [26] = target: Neu5Ac(a2-6)Gal(b1-4)GlcNAc(b1-3)Gal(b1-3)GlcNAc
# In short: as §1
# [27] = target: Neu5Ac(a2-6)Gal(b1-4)GlcNAc(b1-3)Gal(b1-4)GlcNAc
# In short: as §1
# [28] = target: Neu5Ac(a2-6)Gal(b1-4)GlcNAc(b1-3)Gal(b1-4)GlcNAc(b1-3)Gal(b1-4)GlcNAc
# In short: as §1
# [29] = target: Neu5Ac(a2-6)Gal(b1-4)GlcNAc(b1-3)Gal(b1-4)[Fuc(a1-3)]GlcNAc(b1-3)Gal(b1-4)[Fuc(a1-3)]GlcNAc
# In short: as §1
# [30] = target: Neu5Ac(a2-6)Gal(b1-4)GlcNAc(b1-3)GalNAc
# In short: as §1
# [31] = target: Neu5Ac(a2-6)Gal(b1-4)GlcNAc6S
# In short: as §1
# Neu5Ac(a2-6)GalNAc = target: Neu5Ac(a2-6)GalNAc
# In short: as §1
# [32] = target: Neu5Ac(a2-6)GalNAc(b1-4)GlcNAc
# In short: as §1
# [33] = target: Neu5Ac(a2-6)GlcNAc(b1-4)GlcNAc
# In short: as §1
# [34] = target: Neu5Ac(a2-6)GlcNAc(b1-4)GlcNAc(b1-4)GlcNAc
# In short: as §1
# Neu5Ac(a2-8)Neu5Ac = target: Neu5Ac(a2-8)Neu5Ac
# In short: as §1
# [35] = target: Neu5Ac(a2-8)Neu5Ac(a2-3)Gal(b1-4)Glc
# In short: as §1
# [36] = target: Neu5Ac(a2-8)Neu5Ac(a2-3)[Gal(b1-3)GalNAc(b1-4)]Gal(b1-4)Glc
# In short: as §1
# [37] = target: Neu5Ac(a2-8)Neu5Ac(a2-3)[GalNAc(b1-4)]Gal(b1-4)Glc
# In short: as §1
# [38] = target: Neu5Ac(a2-8)Neu5Ac(a2-8)Neu5Ac
# In short: as §1
# [39] = target: Neu5Ac(a2-8)Neu5Ac(a2-8)Neu5Ac(a2-3)Gal(b1-4)Glc
# In short: as §1
# [40] = target: Neu5Ac(a2-8)Neu5Ac(a2-8)Neu5Ac(a2-3)[GalNAc(b1-4)]Gal(b1-4)Glc
# In short: as §1
# [41] = target: Neu5Ac(a2-8)Neu5Ac(a2-8)Neu5Ac(a2-8)Neu5Ac(a2-3)[GalNAc(b1-4)]Gal(b1-4)Glc
# In short: as §1
# [42] = target: Neu5Ac(b2-6)Gal(b1-4)GlcNAc
# In short: as §1
# Neu5Ac(b2-6)GalNAc = target: Neu5Ac(b2-6)GalNAc
# In short: as §1
# [43] = target: Neu5Ac9Ac(a2-3)Gal(b1-3)GlcNAc
# In short: as §1
# [44] = target: Neu5Ac9Ac(a2-3)Gal(b1-4)GlcNAc
# In short: as §1
# [45] = target: Neu5Ac9Ac(a2-6)Gal(b1-4)GlcNAc
# In short: as §1
# [46] = target: Neu5Gc(a2-3)Gal(b1-3)GlcNAc
# In short: as §1
# [47] = target: Neu5Gc(a2-3)Gal(b1-3)[Fuc(a1-4)]GlcNAc
# In short: as §1
# Neu5Gc(a2-3)Gal(b1-4)Glc = target: Neu5Gc(a2-3)Gal(b1-4)Glc
# In short: as §1
# [48] = target: Neu5Gc(a2-3)Gal(b1-4)GlcNAc
# In short: as §1
# [49] = target: Neu5Gc(a2-3)Gal(b1-4)[Fuc(a1-3)]GlcNAc
# In short: as §1
# [50] = target: Neu5Gc(a2-6)Gal(b1-4)GlcNAc
# In short: as §1
# Neu5Gc(a2-6)GalNAc = target: Neu5Gc(a2-6)GalNAc
# In short: as §1
# [51] = target: Neu5Gc(b2-6)Gal(b1-4)GlcNAc
# In short: as §1
binder,measurement,setting,value
B1,glycan array binding signal (z-score),[1],0.033
same,glycan array binding signal (z-score),[2],-0.185
same,glycan array binding signal (z-score),[3],0.223
same,glycan array binding signal (z-score),[4],0.027
same,glycan array binding signal (z-score),[5],0.292
same,glycan array binding signal (z-score),[6],-0.007
same,glycan array binding signal (z-score),[7],1.05
same,glycan array binding signal (z-score),[8],0.109
same,glycan array binding signal (z-score),Neu5Ac(a2-3)GalNAc,-0.529
same,glycan array binding signal (z-score),[9],-0.493
same,glycan array binding signal (z-score),[10],0.521
same,glycan array binding signal (z-score),[11],0.114
same,glycan array binding signal (z-score),[12],0.886
same,glycan array binding signal (z-score),[13],-0.275
same,glycan array binding signal (z-score),Neu5Ac(a2-6)Gal,-0.496
same,glycan array binding signal (z-score),[14],-0.151
same,glycan array binding signal (z-score),Neu5Ac(a2-6)Gal(b1-4)Glc,-0.274
same,glycan array binding signal (z-score),[15],-0.393
same,glycan array binding signal (z-score),[16],1.49
same,glycan array binding signal (z-score),[17],-0.499
same,glycan array binding signal (z-score),[18],-0.476
same,glycan array binding signal (z-score),[19],1.41
same,glycan array binding signal (z-score),[20],2.32
same,glycan array binding signal (z-score),[21],-0.222
same,glycan array binding signal (z-score),[22],0.212
same,glycan array binding signal (z-score),[23],0.316
same,glycan array binding signal (z-score),[24],-0.356
same,glycan array binding signal (z-score),[25],0.706
same,glycan array binding signal (z-score),[26],0.56
same,glycan array binding signal (z-score),[27],-0.138
same,glycan array binding signal (z-score),[28],-0.454
same,glycan array binding signal (z-score),[29],-0.231
same,glycan array binding signal (z-score),[30],2.32
same,glycan array binding signal (z-score),[31],2.46
same,glycan array binding signal (z-score),Neu5Ac(a2-6)GalNAc,-0.51
same,glycan array binding signal (z-score),[32],-0.017
same,glycan array binding signal (z-score),[33],-0.322
same,glycan array binding signal (z-score),[34],-0.448
same,glycan array binding signal (z-score),Neu5Ac(a2-8)Neu5Ac,-0.065
same,glycan array binding signal (z-score),[35],-0.514
same,glycan array binding signal (z-score),[36],0.258
same,glycan array binding signal (z-score),[37],0.064
same,glycan array binding signal (z-score),[38],0.467
same,glycan array binding signal (z-score),[39],-0.314
same,glycan array binding signal (z-score),[40],-0.165
same,glycan array binding signal (z-score),[41],-0.419
same,glycan array binding signal (z-score),[42],0.111
same,glycan array binding signal (z-score),Neu5Ac(b2-6)GalNAc,-0.558
same,glycan array binding signal (z-score),[43],-0.482
same,glycan array binding signal (z-score),[44],0.554
same,glycan array binding signal (z-score),[45],-0.471
same,glycan array binding signal (z-score),[46],-0.009
same,glycan array binding signal (z-score),[47],1.06
same,glycan array binding signal (z-score),Neu5Gc(a2-3)Gal(b1-4)Glc,1
same,glycan array binding signal (z-score),[48],-0.104
same,glycan array binding signal (z-score),[49],1.5
same,glycan array binding signal (z-score),[50],0.489
same,glycan array binding signal (z-score),Neu5Gc(a2-6)GalNAc,-0.403
same,glycan array binding signal (z-score),[51],-0.09
